From the supplement of paper PMC12217912
The other results are listed elsewhere or left out. Sequences were assembled here from the parent chain. Inactive controls read about 0.05.

B1: TEV protease; numbered along this chain (parent)
chain: MGESLFKGPRDYNPISSSICHLTNESDGHTTSLYGIGFGPFIITNKHLFRRNNGTLVVQSLHGVFKVKDTTTLQQHLVDGRDMIIIRMPKDFPPFPQKLKFREPQREERICLVTTNFQTKSMSSMVSDTSCTFPSGDGIFWKHWIQTKDGQCGSPLVSTRDGFIVGIHSASNFTNTNNYFTSVPKNFMELLTNQEAQQWVSGWRLNADSVLWGGHKVFMVKPEEPFQPVKEATQL

Variants of: B1
Assay: raw area under fraction-flipped curve 0-4 h after induction (AUC4h, not background-subtracted), DNA-recorder readout of cleavage of the substrate (dimensionless); higher = more cleavage of the substrate by the protease variant
Settings: temperature: 34 °C; time window: 0-4 h after rhamnose induction
Experimental: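 In vivo DNA recorder in E. coli TOP10(DE3) ΔrhaA at 34 °C. Each TEVp single-site mutant (parent TEVp 0) is paired with a single-site variant of the 7-mer TEVs (canonical ENLYFQ|S). The substrate sits between flexible linkers in a Bxb1-sfGFP-TEVs-SsrA fusion, so cleavage stabilises Bxb1 and speeds flipping of a recombination array, read by NGS. The value is the raw area under the fraction-flipped curve over 0-4 h after rhamnose induction (AUC4h), with ≥20 reads per time point. It is not background-subtracted; inactive controls average about 0.047.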
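Further: Bxb1 expression induced with 0.2% (w/v) L-rhamnose at OD600 near 0.5, cultures sampled hourly, flipped fraction per protease–substrate barcode pair counted by paired-end Illumina sequencing.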

Variant | area with substrate ENAYFQS | area with substrate ENCYFQS | area with substrate ENDYFQS | area with substrate ENEYFQS | area with substrate ENFYFQS | area with substrate ENGYFQS | area with substrate ENHYFQS | area with substrate ENIYFQS | area with substrate ENNYFQS | area with substrate ENPYFQS | area with substrate ENQYFQS | area with substrate ENSYFQS | area with substrate ENTYFQS | area with substrate ENVYFQS | area with substrate ENYYFQS | area with substrate ENMYFQS | area with substrate ENRYFQS | area with substrate ENWYFQS | area with substrate ENKYFQS
MGESLFKGPRDYNPISSSICHLTNESDGHTTSLYGIGFGPFNITNKHLFRRNNGTLVVQSLHGVFKVKDTTTLQQHLVDGRDMIIIRMPKDFPPFPQKLKFREPQREERICLVTTNFQTKSMSSMVSDTSCTFPSGDGIFWKHWIQTKDGQCGSPLVSTRDGFIVGIHSASNFTNTNNYFTSVPKNFMELLTNQEAQQWVSGWRLNADSVLWGGHKVFMVKPEEPFQPVKEATQL [I42N] | 0.0371 | 0.0418 | 0.0604 | 0.0368 | 0.0204 | 0.0312 | 0.0444 | 0.0281 | 0.0313 | 0.0545 | 0.0468 | 0.0465 | 0.0503 | 0.0437 | 0.0497 | – | – | – | –
MGESLFKGPRDYNPISSSICHLTNESDGHTTSLYGIKFGPFIITNKHLFRRNNGTLVVQSLHGVFKVKDTTTLQQHLVDGRDMIIIRMPKDFPPFPQKLKFREPQREERICLVTTNFQTKSMSSMVSDTSCTFPSGDGIFWKHWIQTKDGQCGSPLVSTRDGFIVGIHSASNFTNTNNYFTSVPKNFMELLTNQEAQQWVSGWRLNADSVLWGGHKVFMVKPEEPFQPVKEATQL [G37K] | 0.0448 | 0.0444 | 0.0568 | 0.0477 | 0.0521 | 0.0532 | 0.0417 | 0.0434 | 0.0473 | 0.0475 | 0.0485 | 0.0506 | 0.0577 | 0.0505 | – | 0.0527 | 0.0477 | 0.0515 | –
MGESLFKGPRDYNPISSSICHLTNESDGHTTSLYGIGFGPFIITNKHLFRRNNGTLVVQSLHGVFKVKDTTTLQQHLVDGRDMIIIRMPKDFPPFPQKLKFREPQREVRICLVTTNFQTKSMSSMVSDTSCTFPSGDGIFWKHWIQTKDGQCGSPLVSTRDGFIVGIHSASNFTNTNNYFTSVPKNFMELLTNQEAQQWVSGWRLNADSVLWGGHKVFMVKPEEPFQPVKEATQL [E108V] | 0.0607 | – | 0.0497 | 0.0578 | 0.0568 | 0.0572 | 0.0606 | – | 0.0543 | 0.0523 | 0.0507 | 0.0579 | 0.0497 | 0.0565 | 0.0457 | 0.0876 | 0.0581 | – | 0.0673
MGESLFKGPRDYNPISSSICHLTNESDGHTTSLYGIGFGPFIITNKHLFRRNNGTLVVQSLHGVFKVKDTTTLQQHLVDGRDMIIIRMPKDFPPFPQKLKFREPQREERICLVTTNFQTKSMSSMVSDTSCTFPSGDGIFWKWWIQTKDGQCGSPLVSTRDGFIVGIHSASNFTNTNNYFTSVPKNFMELLTNQEAQQWVSGWRLNADSVLWGGHKVFMVKPEEPFQPVKEATQL [H143W] | 0.0465 | 0.0594 | 0.0627 | 0.054 | 0.0618 | 0.0627 | 0.0641 | 0.0619 | 0.0563 | 0.0635 | 0.0614 | 0.0592 | – | 0.0491 | 0.0555 | – | 0.073 | – | 0.0576
MGESLFKGPRDYNPISSSICHLTNESDGHTTSLYGIGFGPFIITNKHLFRRNNGTLVVQSLHGVFKVKDTTTLQQHLVDGRDMIIIRMPKDFPPFPQKLKFREPQREERICLVTTNFQTKSMSDMVSDTSCTFPSGDGIFWKHWIQTKDGQCGSPLVSTRDGFIVGIHSASNFTNTNNYFTSVPKNFMELLTNQEAQQWVSGWRLNADSVLWGGHKVFMVKPEEPFQPVKEATQL [S124D] | 0.0573 | 0.0712 | 0.0588 | 0.0406 | 0.0813 | 0.0498 | 0.0561 | – | 0.0594 | – | 0.0557 | 0.0553 | – | 0.0314 | – | 0.084 | – | 0.0611 | 0.0603
MGESLFKGPRDYNPISSSICHLTNESDGHTTSLYGIGFGPFIITNKHLFRRNNGTLVVQSLHGVFKVKDTTTLQQHLVDGRDMIIIRMPKDFPPFPQKLKFREPQREERICLVTTNFQTKSMSSMVSDTSCTFPSGDGIFWKHWIQTKDGQCGSPLVSTRDGFIVGIHSASNFTNTNNYFTSVPFNFMELLTNQEAQQWVSGWRLNADSVLWGGHKVFMVKPEEPFQPVKEATQL [K185F] | 0.0571 | 0.0615 | 0.0586 | 0.0724 | 0.0925 | – | 0.0476 | 0.112 | 0.0504 | – | 0.0561 | 0.0642 | 0.0581 | 0.0828 | 0.0626 | 0.062 | 0.0635 | 0.0563 | 0.0568
MGESLFKGPRDYNPISSSICHLTNESDGHTTSLYGIGFGPFIITNKHLFRRNNGTLVVQSLHGVFKVKDTTTLQQHLVDGRDMIIIRMPKDFPPFPQKLKFREPQREERICLVTTNFQTKSMSSMVSDTSCTFPSGDGIFWKHWIQTKDGQCGSPLVSTRDGFIVGIHSASNFTNTNNYFTSVPKNFYELLTNQEAQQWVSGWRLNADSVLWGGHKVFMVKPEEPFQPVKEATQL [M188Y] | 0.0518 | – | 0.0662 | – | 0.0684 | 0.0532 | 0.0457 | 0.109 | 0.0569 | – | 0.0655 | 0.0052 | – | – | 0.0712 | – | 0.0369 | – | –
MGESLFKGPRDYNPISSSICHLTNESDGHTTSLYGIGFGPFIITNKHLFRRNNGTLVVQSLMGVFKVKDTTTLQQHLVDGRDMIIIRMPKDFPPFPQKLKFREPQREERICLVTTNFQTKSMSSMVSDTSCTFPSGDGIFWKHWIQTKDGQCGSPLVSTRDGFIVGIHSASNFTNTNNYFTSVPKNFMELLTNQEAQQWVSGWRLNADSVLWGGHKVFMVKPEEPFQPVKEATQL [H62M] | 0.0616 | – | 0.0622 | 0.0609 | 0.0512 | 0.0431 | 0.0927 | – | 0.0759 | 0.0557 | – | 0.0613 | – | 0.073 | – | – | 0.067 | – | –
MGESLFKGPRDYNPISSSICHLTNESDGHTTSLYGIGFGPFIITNKHLFRRNNGTLVVQSLHGVFKVKDTTTLQQHLVDGRDMIIIRMPKDFPPFPQKLKFREPQREERICLVTTNFQTKSMSSMVSDTSCTFPSGDGIFWKHWIQTKDGQCGSPVVSTRDGFIVGIHSASNFTNTNNYFTSVPKNFMELLTNQEAQQWVSGWRLNADSVLWGGHKVFMVKPEEPFQPVKEATQL [L156V] | 0.0678 | 0.0464 | 0.0588 | 0.063 | 0.065 | 0.0401 | – | – | 0.0542 | 0.0481 | 0.0618 | 0.0618 | 0.0557 | 0.0715 | – | 0.0742 | 0.0522 | – | 0.0648
